From the supplement of paper PMC3334620
In all, about 33,000 sequences were measured (“E-score (-0.5 to 0.5)”: median about -0.017, highest 2% from about 0.3 on). This is one part of the list.

biological target: T1, Sut1 (UniProt P53032); experiment: PBM E-score (8-mer binding enrichment) (E-score (-0.5 to 0.5)); higher = stronger / more preferred TF binding; most listed sequences are background and not binding sites; conditions: protein concentration: 200 nM; construct: GST-full length
T1 sequence: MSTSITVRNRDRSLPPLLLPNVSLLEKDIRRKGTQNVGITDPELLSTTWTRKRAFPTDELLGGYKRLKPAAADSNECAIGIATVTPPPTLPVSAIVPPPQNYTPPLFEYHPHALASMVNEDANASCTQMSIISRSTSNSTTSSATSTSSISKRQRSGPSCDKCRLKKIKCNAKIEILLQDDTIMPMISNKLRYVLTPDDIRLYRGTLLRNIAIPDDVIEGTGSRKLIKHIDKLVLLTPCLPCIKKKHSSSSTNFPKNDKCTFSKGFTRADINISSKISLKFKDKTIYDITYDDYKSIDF
Procedure, shortened: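 GST-tagged yeast TFs (full-length or DNA-binding domain) were made by PURExpress in vitro transcription/translation and applied at about 100-200 nM to universal all-10-mer Agilent arrays. The arrays were made double-stranded by primer extension, on fresh or once-stripped slides. Bound protein was detected with fluorescent anti-GST, and scans were normalised with masliner. Each ungapped eight-base word, pooled with its reverse complement, received an E-score (modified Wilcoxon-Mann-Whitney statistic) from the Universal PBM Analysis Suite.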

In order of rising “PBM E-score” value:
1. GCAGTCCC  -0.382
2. AGGGGCAG  -0.316
3. AACCCGTG  -0.278
4. AGGTCCCA  -0.273
5. GGTGTGCA  -0.258
6. CGGTCGGC  -0.24
7. CGTCCCTC  -0.235
8. AGGACCCA  -0.218
9. CGACGCCA  -0.213
10. CATCATCC  -0.21
11. GCAGACTA  -0.2
12. GGCATAGA  -0.194
13. CGTCCTGA  -0.191
14. AACCGTAG  -0.191
15. AGCACAGG  -0.184
16. CGCTGCAG  -0.182
17. ATAAGTGC  -0.181
18. CACGCCTC  -0.177
19. ATGCCTAC  -0.175
20. GTGGCTGA  -0.17
21. AAGTGGCT  -0.159
22. AAAACCTG  -0.155
23. AGTCAAGA  -0.155
24. CAAGGCCG  -0.15
25. GCAACCGA  -0.147
26. GACCTCGC  -0.142
27. AACCTGCT  -0.138
28. CCATGCGC  -0.138
29. AGCCACTC  -0.137
30. GAACCCGC  -0.136
31. GAACTCGA  -0.135
32. ACGCAGTC  -0.133
33. CAAACCTC  -0.129
34. CCGAGGCA  -0.128
35. ACGCTGCG  -0.126
36. AGAACTGC  -0.117
37. GGTGCACC  -0.115
38. GGCTACGA  -0.107
39. ATCCCAGC  -0.107
40. ACAGCTTC  -0.101
41. CCTGACTA  -0.0993
42. CTCGACCA  -0.0983
43. GTAGGGAA  -0.0957
44. CCCTCGTC  -0.094
45. AAGGTGAA  -0.0918
46. AGTAGGAA  -0.0881
47. CGGGATGA  -0.0807
48. AGCTTAGG  -0.079
49. TAACGTGA  -0.0781
50. CAGAATCA  -0.078
51. GTCTCAAA  -0.0778
52. ACCTCGAT  -0.0769
53. CACCAATG  -0.0733
54. CGTAGCGC  -0.0721
55. CAGTTTAG  -0.0701
56. GGGATGGA  -0.0689
57. GTCATAGA  -0.0539
58. TCTAAGCA  -0.0537
59. CAATCTGC  -0.0526
60. CCAGGTGC  -0.0526
61. CAGCGTCC  -0.0497
62. ATAATCCC  -0.0485
63. GTCTTACA  -0.0467
64. CACGTTTA  -0.0463
65. CAGTTTAC  -0.046
66. CCGTCTAC  -0.0429
67. AATGCACG  -0.0383
68. GAATCGCA  -0.0351
69. AGTGTCCA  -0.0347
70. AACGAGGA  -0.0346
71. GATTCACA  -0.0333
72. ATCACGAA  -0.032
73. CCGCGCTC  -0.0311
74. CATGTTCG  -0.0291
75. CGACTAAA  -0.0254
76. AGTAGGTC  -0.0245
77. AAGACAGG  -0.0235
78. GGGGTGAA  -0.0208
79. ATGCGAAC  -0.0189
80. CCGTGAAG  -0.0181
81. GTTTGTCA  -0.0164
82. CTCCAAAC  -0.0157
83. CTTACCTC  -0.0153
84. TACTCCTA  -0.00727
85. TCAGAGGA  -0.00509
86. CTTTATGA  -0.00416
87. AGAGTCGG  -8e-05
88. CTTAATCC  0.00038
89. GGTAAGTA  0.00185
90. GTGAACCA  0.00963
91. CCTAGTAA  0.0151
92. CGGGGGAA  0.0154
93. GCCGTAGA  0.0155
94. ACCTGACT  0.0196
95. ACGTACAT  0.0232
96. AGCCACAA  0.0235
97. CCGAAAGC  0.0236
98. GAAGACAC  0.0244
99. CCGATGGA  0.0248
100. CCGGTCCA  0.0265
101. AACTATAG  0.0275
102. AGAAAAGA  0.028
103. ACCTAGAC  0.0284
104. ACCGATAC  0.0287
105. ACAAGACA  0.0347
106. GATGTTAC  0.0376
107. CCGTTTCC  0.0391
108. AATAGTGG  0.041
109. TGAAGCAA  0.0425
110. GGAATTCC  0.0432
111. GAATCTTA  0.0473
112. CTCACCTA  0.0474
113. CGTAGTAG  0.0489
114. CTTTCTGC  0.0524
115. ATGCGTTA  0.0573
116. CTCAAAAC  0.0575
117. GGATGTGA  0.0595
118. AGTTTAGC  0.0646
119. AGAGTTAA  0.0656
120. GTAGAAAC  0.068
121. GCTTCTTA  0.0688
122. AAAGTTCG  0.069
123. AACTTGCC  0.0708
124. AAGTAGTC  0.0711
125. CCGCGAAG  0.0722
126. AGAATTAG  0.0738
127. AATCGAGA  0.0762
128. CATTTACG  0.0784
129. AAGTCACG  0.0795
130. CTAGTTCC  0.0817
131. GGTCTTTA  0.0877
132. TCTACGCA  0.092
133. CATCGGTA  0.0942
134. TCACTAAA  0.108
135. CAAACACC  0.109
136. CGAAGTTC  0.111
137. ATCCCGAC  0.116
138. ATCGTTAG  0.123
139. AAAAGCGG  0.126
140. GCACTTAA  0.132
141. GAGAGTCC  0.136
142. GATGAGTA  0.146
143. ATTGGTAG  0.146
144. ATTGCTCG  0.146
145. ATAACCAA  0.154
146. ATTGGTGG  0.155
147. ATTTCGAG  0.164
148. AATTGTAG  0.165
149. GCCGAATA  0.165
150. ATAATCTC  0.176
151. ATTCCGGC  0.177
152. AGATCACG  0.177
153. CAAAACCA  0.178
154. GACAGTTA  0.179
155. GTTCTTAA  0.18
156. AATTGGAC  0.181
157. ATTTGCTA  0.206
158. AAACGGAT  0.209
159. CGTTTAAA  0.216
160. AATAGCAA  0.219
161. AAAAATCT  0.223
162. AAATAAAG  0.224
163. AATGTACA  0.23
164. AAAATTTT  0.236
165. AAAAGCAA  0.242
166. TCCGCGAA  0.242
167. CAAAATCC  0.247
168. CGAAAAAA  0.277
169. CTTTCAAA  0.302
170. GGACTTAA  0.326
171. ATACGGAG  0.362
172. CAGGTCCG  0.438
